{
  "source": "PubChem BioAssay AID624417",
  "about": "(National Center for Advancing Translational Sciences (NCATS), 2012)",
  "note": "Values joined by “and” are separate entries in the source; they are usually repeats but may differ in a detail not shown here. Identical values can stand only once. In all, about 410,000 compounds went through this assay and about 6,400 (1.6%) were called active. Inconclusive means that the source gave no clear call. Such entries were picked first, then a sample of the others. The call rests on the fitted dose curve; in most records, active means well fitted inhibition curve with a large enough effect; inconclusive means small, poorly fitted or top-dose-only effect; inactive means no such curve, though single readings can be large or run the other way. Potencies of inconclusive entries are doubtful fits and often do not repeat. Potency means the concentration at half of the fitted maximal effect; tags describe the fitted curve by direction and shape.",
  "data": [
    {"biological_target": "Glucagon-like peptide 1 receptor (Homo sapiens) (UniProt P43220)", "sequence (P43220 whole entry, looked up)": "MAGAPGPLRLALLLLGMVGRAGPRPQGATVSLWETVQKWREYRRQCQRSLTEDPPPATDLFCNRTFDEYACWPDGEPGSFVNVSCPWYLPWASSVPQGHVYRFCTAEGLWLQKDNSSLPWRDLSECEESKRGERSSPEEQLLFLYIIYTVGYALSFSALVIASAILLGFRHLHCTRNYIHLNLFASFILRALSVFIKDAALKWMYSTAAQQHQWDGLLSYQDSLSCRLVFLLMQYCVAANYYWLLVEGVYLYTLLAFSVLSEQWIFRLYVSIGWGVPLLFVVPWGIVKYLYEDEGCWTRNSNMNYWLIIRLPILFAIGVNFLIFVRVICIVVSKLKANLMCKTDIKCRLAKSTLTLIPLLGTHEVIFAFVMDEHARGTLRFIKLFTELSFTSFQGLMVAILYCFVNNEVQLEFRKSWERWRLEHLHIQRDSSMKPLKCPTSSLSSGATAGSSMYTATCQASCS", "experiment": "qHTS of GLP-1 Receptor Inverse Agonists (Inhibition Mode); further: nearly all actives have a fitted effect of over 55% in size", "details": "HEK293 GLP-1R CRE-luciferase, luminescence, 24 h, GLP-1R form is constitutively active; series mostly up to 38.3 µM", "how_it_was_run": "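GLP-1R inverse agonism mode: basal reporter luminescence in engineered HEK293 cells measured after one day of compound exposure at 37 deg C, with a 12 min room-temperature detection step.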", "values": [
      {"smiles": "Cc1cc(C)c(C(=O)Nc2ccc3c(c2)OCCO3)c(C)c1", "Potency": "inconclusive: 12.6 µM [inhibitor, single point]"},
      {"smiles": "CCn1cc(CCCC(=O)NCc2ccccc2OC)c2ccccc21", "Potency": "inconclusive: 10 µM [inhibitor, partial curve, poor fit]"},
      {"smiles": "Cn1c(=O)n(C)c2cc(N3CCOCC3)c(NC(=O)c3ccccc3Br)cc21", "Potency": "inactive"},
      {"smiles": "CCOC(=O)c1ccc(NC(=O)c2c(NCc3cccs3)sc3c2CCCC3)cc1", "Potency": "inconclusive: 17.8 µM [inhibitor, single point]"},
      {"smiles": "CC(C)C[C@H]1CNC(=O)C(=O)N1CC1CCN(CCC(C)(C)C)CC1", "Potency": "inactive"},
      {"smiles": "Cn1nc(C(F)(F)F)c(/C=N/OC(=O)c2ccccc2Cl)c1SCc1ccccc1Cl", "Potency": "inconclusive: 22.4 µM [inhibitor, single point]"},
      {"smiles": "CN1CCN(c2ccc([N+](=O)[O-])c(-n3nc(-c4ccccc4)c4ccccc4c3=O)c2)CC1", "Potency": "inconclusive: 28.2 µM [inhibitor, single point]"},
      {"smiles": "COc1cccc(O)c1CN1CCC(n2nccc2NC(=O)c2ccc3c(c2)OCO3)CC1", "Potency": "inconclusive: 28.2 µM [inhibitor, single point]"},
      {"smiles": "CCc1ccc(NC(=S)Nc2cccc3cnccc23)cc1", "Potency": "inconclusive: 10 µM [inhibitor, partial curve]"},
      {"smiles": "Cc1ccc(/C=C/C(=O)c2ccccc2O)cc1", "Potency": "inconclusive: 28.2 µM [inhibitor, single point]"},
      {"smiles": "COCC1CCCN(Cc2cn(Cc3ccccc3)nc2-c2cc3ccccc3o2)C1", "note": "(configuration not stated)", "Potency": "inconclusive: 7.94 µM [inhibitor, partial curve, poor fit]"},
      {"smiles": "COc1cccc2cc(C(=O)OCC(=O)NC3CCCC(C)C3C)c(=O)oc12", "note": "(configuration not stated)", "Potency": "inactive"},
      {"smiles": "COC(=O)c1ccc(/C=C2/SC(=S)N(CCCC(=O)Nc3ccccn3)C2=O)cc1", "Potency": "inconclusive: 3.16 µM [inhibitor, partial curve, poor fit]"},
      {"smiles": "O=C(CN1CCCC1)N1c2ccccc2Sc2ccc(C(F)(F)F)cc21", "Potency": "inconclusive: 28.2 µM [inhibitor, single point]"},
      {"smiles": "Cc1[nH]c2ccc(C(=O)NC3CCCC3)cc2c1C", "Potency": "inconclusive: 22.4 µM [inhibitor, single point]"},
      {"smiles": "O=C(Nc1cccc(NC(=O)c2ccc(-c3cccc(Br)c3)o2)c1)c1ccco1", "Potency": "inconclusive: 10 µM [inhibitor, single point]"},
      {"smiles": "CCOc1ccc(C2Nc3c(C)cccc3-c3cc(C)nn32)cc1", "note": "(configuration not stated)", "Potency": "inconclusive: 8.91 µM [inhibitor, partial curve, poor fit]"},
      {"smiles": "O=C(CC(c1ccccc1)c1ccccc1)NCC(O)c1ccc([N+](=O)[O-])cc1", "note": "(configuration not stated)", "Potency": "inconclusive: 10 µM [inhibitor, partial curve, poor fit]"},
      {"smiles": "COc1ccccc1C1NC(c2ccccc2OC)C(C)C(=O)C1C", "note": "(configuration not stated)", "Potency": "inactive"},
      {"smiles": "O=C(O)c1nc(-c2ccccc2)c(C(=O)NC2CC2)[nH]1", "Potency": "inactive"},
      {"smiles": "CCOc1ccccc1C(=O)Nc1c(C(=O)Nc2ccc(F)cc2)oc2ccccc12", "Potency": "inconclusive: 1 µM [inhibitor, full curve, poor fit]"},
      {"smiles": "COc1ccc(NC(=O)C2(C)Cc3c(-c4cccc(NC(C)=O)c4)ccnc3O2)cc1", "note": "(configuration not stated)", "Potency": "inconclusive: 1.12 µM [inhibitor, full curve, poor fit]"},
      {"smiles": "O=C(Nc1cc(C(F)(F)F)ccc1N1CCOCC1)C1=NN(c2ccccc2)C(=O)CC1", "Potency": "inconclusive: 17.8 µM [inhibitor, single point]"},
      {"smiles": "CCOc1cc(N2CCOCC2)c(OCC)cc1NC(=O)Cc1cccc(OC)c1", "Potency": "inconclusive: 31.6 µM [inhibitor, single point]"},
      {"smiles": "Cc1cc(Cl)ccc1OCCCC(=O)N1CCCCC1", "Potency": "inconclusive: 28.2 µM [inhibitor, single point]"},
      {"smiles": "CN(Cc1cn(C)nc1-c1ccc(Oc2ccccc2)cc1)C1CCOC1", "note": "(configuration not stated)", "Potency": "inconclusive: 11.2 µM [inhibitor, partial curve, poor fit]"},
      {"smiles": "COc1cc(NC(=O)CN2C(=O)C(c3ccccc3)=NC23CCCCCC3)cc(OC)c1", "Potency": "inconclusive: 11.2 µM [inhibitor, single point]"},
      {"smiles": "FC(F)Oc1ccc(NC(=S)NCc2ccccc2)cc1", "Potency": "inconclusive: 31.6 µM [inhibitor, single point]"},
      {"smiles": "N=C1S/C(=C\\c2ccc(-c3cccc(Cl)c3)o2)C(=O)N1c1nccs1", "Potency": "inconclusive: 2.24 µM [inhibitor, full curve, poor fit]"},
      {"smiles": "Cc1ccccc1C(=O)NC1CCCCCCC1", "Potency": "inconclusive: 10 µM [inhibitor, partial curve, poor fit]"},
      {"smiles": "O=C1C=CC(c2ccccc2)(c2ccccc2)CC1", "Potency": "inconclusive: 28.2 µM [inhibitor, single point]"},
      {"smiles": "O=C(O)c1cc(NC(=S)NC(=O)C(c2ccccc2)c2ccccc2)ccc1Cl", "Potency": "inactive"},
      {"smiles": "COc1ccc(Cl)cc1NC(=O)C1Cc2ccccc2CN1S(C)(=O)=O", "note": "(configuration not stated)", "Potency": "inconclusive: 14.1 µM [inhibitor, single point]"},
      {"smiles": "CN(/N=C/c1cc(Cl)cc(Cl)c1O)C(=S)NC(C)(C)C", "Potency": "inconclusive: 25.1 µM [inhibitor, partial curve, poor fit]"},
      {"smiles": "CC(C)c1ccccc1NC(=O)Cn1c(/C=C/c2ccccc2)nc2ccccc21", "Potency": "inconclusive: 31.6 µM [inhibitor, single point]"},
      {"smiles": "C/C(=C\\c1ccc2c(c1)OCO2)C(=O)c1c(C)cc(C)[nH]c1=O", "Potency": "inconclusive: 14.1 µM [inhibitor, partial curve, poor fit]"},
      {"smiles": "COCOCCn1cc(CN2CCS(=O)(=O)N(Cc3ccc(-c4ccccc4)cc3)C(CC(C)C)C2=O)nn1", "note": "(configuration not stated)", "Potency": "inconclusive: 14.1 µM [inhibitor, single point]"},
      {"smiles": "COc1ccc(/C=N/NC(=O)COc2ccccc2-c2ccccc2)cc1", "Potency": "inconclusive: 2.82 µM [inhibitor, partial curve, poor fit]"},
      {"smiles": "Cc1ccc(-c2nc3ccccn3c2Nc2ccccc2C)s1", "Potency": "inconclusive: 10 µM [inhibitor, partial curve]"},
      {"smiles": "CCCOc1ccc2oc(=O)c3c(c2c1)CCCN3C(=O)CN1CCc2ccccc2C1", "Potency": "inconclusive: 25.1 µM [inhibitor, single point]"},
      {"smiles": "CC(=O)c1cccc(-c2ccnc3c2CC(C(=O)Nc2ccc(C(C)C)cc2)O3)c1", "note": "(configuration not stated)", "Potency": "inconclusive: 2.82 µM [inhibitor, full curve]"},
      {"smiles": "C=CCN1C(=O)C(Cc2ccccc2)S/C1=N/N=C/c1cccs1", "note": "(configuration not stated)", "Potency": "active: 11.2 µM"},
      {"smiles": "C=C(C)CNC(=S)N/N=C(\\C)c1cccc(NC(C)=O)c1", "Potency": "inconclusive: 11.2 µM [inhibitor, single point]"},
      {"smiles": "COc1ccc(O)c(/C=N/NC(=S)Nc2cccnc2)c1", "Potency": "inconclusive: 28.2 µM [inhibitor, single point]"},
      {"smiles": "Cc1ccc(S(=O)(=O)N(C)c2cc(S(=O)(=O)N3CCOCC3)c(C)cc2C)cc1", "Potency": "inactive"},
      {"smiles": "CN1CCN(S(=O)(=O)c2cccc3nsnc23)CC1", "Potency": "inconclusive: 0.316 µM [inhibitor, full curve, poor fit]"},
      {"smiles": "COc1cccc(CNCC2CCCO2)c1", "note": "(configuration not stated)", "Potency": "inactive"},
      {"smiles": "Cc1cc(C)cc(NC(=O)COc2coc(CN3CCc4ccccc4C3)cc2=O)c1", "Potency": "inconclusive: 3.55 µM [inhibitor, partial curve, poor fit]"},
      {"smiles": "CCN(CC)c1ccc(/C=N/OCC(=O)Nc2cccc(C)c2)cc1", "Potency": "inconclusive: 12.6 µM [inhibitor, single point]"},
      {"smiles": "COc1cccc(C(=O)Nc2cccc(S(=O)(=O)NC3=NCCC3)c2)c1", "Potency": "inactive"},
      {"smiles": "CCN(CC)c1ccc(C(=O)Nn2cnc3ccccc3c2=O)cc1", "Potency": "inconclusive: 2.24 µM [inhibitor, partial curve, poor fit]"},
      {"smiles": "CC(=O)c1ccc(N2CCN(CC(O)COC(c3ccccc3)c3ccccc3C)CC2)cc1", "note": "(configuration not stated)", "Potency": "inconclusive: 11.2 µM [inhibitor, partial curve, poor fit]"},
      {"smiles": "CC(C)c1ccc(C(=O)Nc2cc(-c3ccccc3F)nn2-c2ccccc2)cc1", "Potency": "inconclusive: 0.794 µM [inhibitor, full curve, poor fit]"},
      {"smiles": "COc1cc(C(=O)NC(=S)Nc2ccc(NC(=O)c3ccco3)cc2)cc(OC)c1OC", "Potency": "inactive"},
      {"smiles": "CC(=O)Cc1nsc(NC(=O)c2c(-c3ccccc3Cl)noc2C)n1", "Potency": "inactive"},
      {"smiles": "Cc1ccccc1CN1C(=O)c2ccccc2Sc2ccc(C(=O)N3CCCC3)cc21", "Potency": "inconclusive: 10 µM [inhibitor, partial curve]"},
      {"smiles": "COc1cc(OC)cc(OCC(O)Cn2ccnc2C)c1", "note": "(configuration not stated)", "Potency": "inconclusive: 1.41 µM [inhibitor, partial curve, poor fit]"},
      {"smiles": "CCCCn1c(NCc2ccc(OC)cc2O)nc2ccccc21", "Potency": "inconclusive: 28.2 µM [inhibitor, single point] and inconclusive: 10 µM [inhibitor, partial curve, poor fit]"},
      {"smiles": "COc1ccc(OC)c(C2CC(c3c(-c4ccccc4)c4cc(Cl)ccc4[nH]c3=O)=NN2S(C)(=O)=O)c1", "note": "(configuration not stated)", "Potency": "inconclusive: 3.16 µM [inhibitor, partial curve, poor fit]"},
      {"smiles": "Cc1ccc(C(=O)c2cnc3cc4c(cc3c2S(=O)(=O)c2ccccc2)OCCO4)cc1", "Potency": "inconclusive: 6.31 µM [inhibitor, partial curve, poor fit]"},
      {"smiles": "O=C(NCc1ccccc1)c1ccc(CSc2nc3cccnc3n2Cc2cccc(F)c2)cc1", "Potency": "inconclusive: 8.91 µM [inhibitor, partial curve, poor fit]"},
      {"smiles": "C/C(=N\\NC(=O)c1nnn(-c2nonc2N)c1CN(C)c1ccccc1)c1cccnc1", "Potency": "inconclusive: 11.2 µM [inhibitor, single point]"}
    ]}
  ]
}
